According to US7214696B2, “Compositions and methods for stabilizing transthyretin and inhibiting transthyretin misfolding” (The Scripps Research Institute, priority 2002, dated 2007):

Tests used:
[1] = target: T1, TTR in human blood plasma (Homo sapiens, UniProt P02766); format: binding; design: from tissue; host or cells: human blood plasma from healthy volunteers; conditions: test compound 10.8 μM, 24 h, 37° C.
Protocol: Human blood plasma (TTR conc. 3.6–5.4 μM) was incubated for 24 h with the test compound (10.8 μM) at 37° C. The TTR and any bound inhibitor were immunoprecipitated using a sepharose-bound polyclonal TTR antibody. The TTR with or without inhibitor bound was liberated from the resin at high pH, and the inhibitor:TTR stoichiometry was ascertained by HPLC analysis (FIG. 8).

WT TTR [2] = target: T2, WT TTR (Homo sapiens, UniProt P02766); test: Benzoxazole fibril formation assay (pH 4.4, 72 h, turbidity 400 nm), Example 5; format: biochemical; conditions: TTR 3.6 μM, test compound 7.2 μM
Protocol: The benzoxazoles were evaluated using a series of analyses of increasing stringency. WT TTR (3.6 μM) was incubated for 30 min (pH 7, 37° C.) with a test compound (7.2 μM). Since at least one molecule of the test compound must bind to each molecule of TTR tetramer to be able to stabilize it, a test compound concentration of 7.2 μM is only twice the minimum effective concentration. The pH was then adjusted to 4.4, the optimal pH for fibrilization. The amount of amyloid formed after 72 h (37° C.) in the presence of the test compound was determined by turbidity at 400 nm and is expressed as % fibril formation (ff), 100% being the amount formed by TTR alone. Of the 28 compounds tested, 11 reduced fibril formation to negligible levels (ff<10%; FIG. 7).

TTR in whole blood = target: T3, TTR in whole blood (Homo sapiens, UniProt P02766); test: Binding stoichiometry of OH-PCBs in whole blood, Example 4
T3 construct: Whole blood was drawn from healthy volunteers; from tissue; host or cells: human whole blood from healthy volunteers
Source text: Up to two PCBs can bind to the two identical thyroid hormone binding sites in a TTR tetramer. […] Several of the hydroxylated PCBs (e.g., 16 and 22) approach a binding stoichiometry of 2.

WT TTR tetramer [3] = target: T4, WT TTR tetramer (Homo sapiens, UniProt P02766); test: WT TTR tetramer dissociation rate in 6 M urea, Example 1; format: biochemical; conditions: TTR 1.8 μM
Protocol: Tetramer dissociation rates were measured by linking slow quaternary structural changes to the unfolding transition, with a rate of 5×10^5 times that of dissociation (Hammarström et al., Proc. Natl. Acad. Sci. U.S.A. 99, 16427 (2002)). Denaturation-detected dissociation is irreversible because the concentration of urea used (>6.0 M) cannot support refolding.

[4] = target: T1, TTR in human blood plasma; test: Immunoprecipitation/HPLC binding stoichiometry of PCBs and OH-PCBs in plasma, Example 4; design: from tissue; host or cells: human blood plasma from healthy volunteers; conditions: OH-PCB 10.8 μM in human blood plasma; post-wash lower limit
[5] = target: wt transthyretin tetramer (Homo sapiens, UniProt P02766); test: TTR tetramer dissociation in 6 M urea, Example 5; conditions: TTR 1.8 μM, inhibitor 3.6 μM
[6] = target: T1, TTR in human blood plasma; test: Plasma selectivity: antibody capture/HPLC binding stoichiometry, Example 2; conditions: 10.8 μM inhibitor in human plasma, 37° C., 24 h; post-wash lower limit; maximum 2 per TTR tetramer
WT TTR [7] = target: T2, WT TTR; test: Isothermal titration calorimetry, dissociation constants, Example 2; format: binding; conditions: ITC; for Kd: wild type TTR, pH 8.0, 25° C.
Protocol: The dissociation constants characterizing the binding of 18 and 20 to WT TTR were determined by isothermal titration calorimetry using a Microcal instrument (Microcal Inc., Northhampton, Md.). […] The initial injection of 2.5 μL was followed by 50 injections of 5.0 μL each (25° C.). […] The data were fit by a nonlinear least squares approach with four adjustable parameters, namely, K1, ΔH1, K2, ΔH2 using the ITC data analysis module in ORIGIN version 2.9 provided by Microcal.
Isothermal titration calorimetry (ITC) was employed to determine the binding constants of 18 and 20 to TTR at pH 8.0 (25° C.).

TTR [8] = target: T5, TTR (Homo sapiens, UniProt P02766); test: TTR quaternary structure at pH 4.4 by equilibrium and velocity analytical ultracentrifugation, Example 2; format: biochemical; conditions: pH 4.4, TTR 3.6 μM, inhibitor 3.6 μM or 7.2 μM
Protocol: The TTR quaternary structure in the presence of inhibitors at pH 4.4 was analyzed. The mechanism by which 18 and 20 stabilize TTR was evaluated by incubating the protein (3.6 μM) for 72 h under the conditions of the stagnant fibril formation assay in the presence of either 3.6 μM or 7.2 μM inhibitor. After 72 h, the samples were centrifuged (14,000×g) and the supernatant was removed from any solid that was formed in the assay. […] The acquisition and analysis of data was performed as described previously.
To ensure that the inhibitors are stabilizing the tetrameric form of TTR (3.6 μM), the quaternary structure of TTR was probed with equilibrium and velocity analytical ultracentrifugation studies. The quaternary structure of the protein after 72 h incubation with 18 and 20 (3.6 μM or 7.2 μM) at pH 4.4 was determined.

WT TTR tetramer [9] = target: T4, WT TTR tetramer; test: TTR tetramer dissociation kinetics by linked monomer unfolding in 6.5 M urea (far-UV CD), Example 2; conditions: 3.6 μM TTR, 3.6 or 7.2 μM inhibitor; for effect on TTR tetramer dissociation in 6.5 M urea: 168 h time-course
WT TTR [10] = target: T2, WT TTR; conditions: pH 4.4, 3.6 or 7.2 μM inhibitor, 3.6 μM TTR
WT TTR [11] = target: T2, WT TTR; test: Isothermal titration calorimetry of OH-PCB 18 and TTR, Example 4; format: binding
Protocol: When substoichiometric (<1:1) amounts of 18 are added to TTR, the predominant species observed in the mass spectrometer are apo-TTR and the TTR•182 complex, consistent with positively cooperative binding. […] Isothermal titration calorimetry studies carried out under physiological conditions reveal that the binding of OH-PCB 18 to WT TTR fits best to a model where the dissociation constants are identical Kds (3.2±1.8 nM). […] Attempts to fit the collected data to models of positively or negatively cooperative binding yielded poor fits.
A 25 μM solution of compound 18 (in 10 mM phosphate pH 7.6, 100 mM KCl, 1 mM EDTA, 8% DMSO) was titrated into a 1.2 μM solution of TTR in an identical buffer using a Microcal MCS Isothermal Titration Calorimeter (Microcal, Northampton, Mass.). An initial injection of 2 μL was followed by 25 injections of 10 μL at 25° C. The thermogram was integrated and a blank was subtracted to yield a binding isotherm that fit best to a model of two identical binding sites using the ITC data analysis package in ORIGIN 5.0 (Microcal).

TTR [12] = target: T5, TTR; test: Wash-associated loss of PCB from immobilized recombinant TTR, Example 4; format: binding; design: made in house; host or cells: Escherichia coli BL21/DE3 Epicurian gold, pmmHα plasmid; conditions: 10.8 μM compound, recombinant TTR 3.6 μM
Protocol: PCBs and OH-PCBs (10.8 μM) were incubated with recombinant TTR (3.6 μM) to evaluate the stoichiometry of small molecule bound to immobilized TTR after each wash step. […] Quantification of wash-associated losses allows one to estimate the true binding stoichiometry of PCBs and OH-PCBs in plasma.
The amount of PCB (or OH-PCB) that washes off of the antibody•TTR•PCB complex during the washing steps was evaluated using recombinant WT TTR.

TTR [13] = target: T5, TTR; test: Sedimentation velocity analytical ultracentrifugation, Example 5; format: biochemical; conditions: TTR 3.6 μM, 72 h, pH 4.4, 37° C.
Protocol: To confirm that 20 inhibits TTR fibril formation by binding strongly to the tetramer, isothermal titration calorimetry (ITC) and sedimentation velocity experiments were conducted with wt TTR. […] For the sedimentation velocity experiments, TTR (3.6 μM) was incubated with 20 (3.6 μM, 7.2 μM, 36 μM) under optimal fibrilization conditions (72 h, pH 4.4, 37° C.).
The quaternary structure of TTR in the presence of 20 was observed using sedimentation velocity analytical ultracentrifugation. The samples were incubated with 20 at 3.6, 7.2 or 36 μM for 72 h. The data were collected on a temperature-controlled Beckman XL-I analytical ultracentrifuge (equipped with an An60Ti rotor and photoelectric scanner). A double sector cell, equipped with a 12 mm Epon centerpiece and sapphire windows, was loaded with 400–420 μL of sample using a syringe. Data were collected at rotor speeds of 3000 and 50000 rpm in continuous mode at 25° C., with a step size of 0.005 cm employing an average of 1 scan per point. Detection was carried out at 280 nm. The data were subjected to time-derivative analysis using the program DCDT+ developed by Philo (Philo, 2000; Stafford, 1992). […] The molecular weight of each species was determined by methods reported previously (Petrassi, et al 2000).

TTR [14] = target: T5, TTR; conditions: read-out: Kd2; cited from earlier work

Compound: 2′,6′-Difluorobiphenyl-4-carboxylic acid [Compound 20]
- inhibitor:TTR binding stoichiometry in human blood plasma [1]: displayed the highest binding stoichiometries
- activity in the fibril formation assay (WT TTR [2]): excellent inhibitory activity
- Equivalents Bound (Blood) (TTR in whole blood): 0.86

Compound: 3′,5′-Difluorobiphenyl-4-ol [Compound 9]
- Equivalents Bound (Blood) (TTR in whole blood): 0.57
- protection of the tetramer from dissociation in 6 M urea by T·I and T·I2 (WT TTR tetramer [3]): prevented tetramer dissociation in 6 M urea
- Equivalents Bound (Plasma) [4]: 0.83 ± 0.19

Compound: 4-Hydroxybiphenyl-3-carboxylic acid [Compound 27]
- unfolding after 168 h [5]: 90%
- activity in the fibril formation assay (WT TTR [2]): active in the fibril formation assay

Compound: O=C(O)c1ccc(-c2cc(F)cc(F)c2)cc1 [Compound 18, 3′,5′-Difluorobiphenyl-4-carboxylic acid]
- Plasma Selectivity (equiv bound) [6]: 1.27 ± 0.12 equiv bound
- binding at the first site relative to the second site (Kd2/Kd1) (WT TTR [7]; negative cooperativity): approximately 120 times
- Kd (WT TTR [7]; read-out: Kd1): 0.009 µM
- Kd (WT TTR [7]; read-out: Kd2): 1.1 µM
- TTR quaternary structure after 72 h incubation with inhibitor (TTR [8]): The tetramer was the dominant species

Compound: O=C(O)c1ccc(-c2c(F)cccc2F)cc1 [Compound 20, 2′,6′-Difluorobiphenyl-4-carboxylic acid]
- time for which tetramer dissociation was prevented [5]: at least 168 h
- rank among inhibitors of tetramer dissociation in 6.5 M urea (WT TTR tetramer [9]): superior
- effect on TTR tetramer dissociation in 6.5 M urea (WT TTR tetramer [9]): overall reduction in the extent of tetramer dissociation
- Kd (WT TTR [7]; read-out: Kd2): 1.3 µM
- performance in slowing TTR fibril formation under acidic conditions (WT TTR [10]): perform exceptionally well
- TTR quaternary structure after 72 h incubation with inhibitor (TTR [8]): The tetramer was the dominant species

Compound: OCc1cccc(-c2cc(Cl)cc(Cl)c2)c1 [Compound 48, 3′,5′-Dichlorobiphenyl-3-yl-methanol]
- Plasma Selectivity (equiv bound) [6]: 0.89 ± 0.09 equiv bound
- rank among inhibitors of tetramer dissociation in 6.5 M urea (WT TTR tetramer [9]): superior
- effect on TTR tetramer dissociation in 6.5 M urea (WT TTR tetramer [9]): overall reduction in the extent of tetramer dissociation
- performance in slowing TTR fibril formation under acidic conditions (WT TTR [10]): perform exceptionally well

Compound: Oc1c(Cl)cc(-c2cc(Cl)c(O)c(Cl)c2)cc1Cl [OH-PCB 18]
- Kd (WT TTR [11]; ITC, physiological conditions, 25° C., read-out: Kds (two identical binding sites)): 0.0032 ± 0.0018 µM
- stabilization of the native state of TTR (WT TTR [11]; dictated by the nM Kds): > 3 kcal/mol

Compound: Clc1cccc(-c2ccccc2)c1 [PCB 2]
- decrease of stoichiometry after 5 washes (wash-associated loss) (TTR [12]): 10%

Compound: Clc1ccccc1-c1ccccc1Cl [PCB 4]
- decrease of stoichiometry after 5 washes (wash-associated loss) (TTR [12]): 45%

Compound: O=C(O)c1ccc2nc(-c3c(Cl)cccc3Cl)oc2c1 [benzoxazole 20, 6-Carboxy-2-(2,6-dichlorophe2nyl)-benzoxazole]
- TTR species in solution (TTR [13]; inhibitor 3.6 μM): the TTR remaining in solution was tetrameric
- TTR species in solution (TTR [13]; inhibitor 7.2 or 36 μM): only detectable species in solution

Compound: O=C(O)Cc1ccccc1Nc1c(Cl)cccc1Cl [diclofenac]
- Kd (TTR [14]): 1.2 µM
